{"source": "ChEMBL document CHEMBL1201862", "about": "“PubChem BioAssay data set” (2004)", "note": "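These data come from cells grown in 96-well plates and exposed to compound for 48 hours at five concentrations. GI50 is the concentration that inhibits growth by half.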 The source made the active and inactive calls. Rule as the data show it: active = GI50 up to about 1.1 µM and inactive = higher.", "data": [{"tested_on": "NCI-H322M", "experiment": "inhibition of tumour cell growth, NCI panel, 48 h", "values": [{"smiles": "O=[N+]([O-])c1cc(Cl)ccc1S(=O)(=O)c1ccc(Cl)cc1[N+](=O)[O-]", "GI50": "inactive: 16.3 µM"}, {"smiles": "C[Si](C)(C)CN1C(=O)c2ccccc2C1(O)c1ccccc1", "note": "(stereo not drawn)", "GI50": "inactive: > 100 µM"}, {"smiles": "COc1cc(OC)c2c3c(OC)cc(OC)c4c(=O)c(O)c(C[C@@H](C)O)c(c5c(C[C@@H](C)O)c(O)c(=O)c1c25)c43", "GI50": "inactive: 26.5 µM"}, {"smiles": "CC(=O)C(=Cc1cn(C)c(=O)n(C)c1=O)C(C)=O", "GI50": "inactive: 74 µM"}, {"smiles": "COC1OC2COC1(OCc1ccccc1)C1OC(C)(C)OC21", "note": "(stereo not drawn)", "GI50": "inactive: > 100 µM"}, {"smiles": "c1ccc2c(c1)CC1=C(O2)c2ccccc2OC1", "GI50": "inactive: 36.7 µM"}, {"smiles": "Cc1cc(N(CCOS(C)(=O)=O)CCOS(C)(=O)=O)ccc1/C=N/c1ccc(-c2csc(-c3ccccc3)n2)c(Cl)c1", "GI50": "inactive: 11.3 µM"}, {"smiles": "N=C(N)NS(=O)(=O)c1ccc(NCc2c3ccccc3[n+]([O-])c3ccccc23)cc1", "GI50": "inactive: 30.8 µM"}, {"smiles": "COC(=O)c1cc(O)ccc1NC(=O)c1ccc(O)cc1", "GI50": "inactive: > 100 µM"}, {"smiles": "CC(=O)Nc1ccc(/C=C/C(=O)c2sc(C(N)=S)nc2C)cc1", "GI50": "inactive: > 100 µM"}, {"smiles": "COC(=O)c1c(OC(C)=O)ccc2c1c1cc3ccccc3c(OC(C)=O)c1n2C", "GI50": "inactive: 27.1 µM"}, {"smiles": "COC(=O)c1ccc(C(=O)OC)c2nc3cc(C)ccc3nc12", "GI50": "inactive: 82.2 µM"}, {"smiles": "COc1c(O)ccc(/C=N/NC(=S)NCOCCOC(C)=O)c1OC", "GI50": "inactive: > 100 µM"}, {"smiles": "CC(C)(C)Nc1noc(=O)n1C(C)(C)C", "GI50": "inactive: > 100 µM"}, {"smiles": "O=C(c1cc(Cl)cc(Cl)c1)N(Cc1cccnc1)C(=S)N(Cc1cccnc1)C(=O)c1cc(Cl)cc(Cl)c1", "GI50": "inactive: 34.3 µM"}, {"smiles": "CC1(C)C=C(/C=N/Nc2ccc([N+](=O)[O-])cc2)C(C#N)=C(O)C1(C#N)C#N", "GI50": "inactive: > 100 µM"}, {"smiles": "O=C1Nc2cccc3ncn(c23)C2=C1CCCC2", "GI50": "inactive: > 100 µM"}, {"smiles": "COc1ccc2c(c1)C(O)(C(F)(F)F)c1cc(C(=O)C(F)(F)F)c3ccccc3c1N2", "note": "(stereo not drawn)", "GI50": "inactive: 12.2 µM"}, {"smiles": "COc1cc2c(c(OC)c1OC)[C@@H]1CCCCC[C@@H]1CCC2=O", "GI50": "inactive: > 100 µM"}, {"smiles": "Clc1ccc(OCc2nn3c(CCc4nnc5sc(COc6ccc(Cl)cc6)nn45)nnc3s2)cc1", "GI50": "inactive: 41 µM"}, {"smiles": "NC(=O)c1cc2ccccc2o/c1=N/O", "GI50": "inactive: > 100 µM"}, {"smiles": "O=C1/C(=C/c2ccncc2)C(n2cccc2)c2c(Br)sc(Br)c21", "note": "(stereo not drawn)", "GI50": "inactive: 2.36 µM"}, {"smiles": "CN(C)CCCSc1c2ccccc2nc2cc(NCC(=O)Nc3ccccc3-c3ccccc3NC(=O)CNc3ccc4c(SCCCN(C)C)c5ccccc5nc4c3)ccc12", "GI50": "inactive: > 100 µM"}, {"smiles": "OCc1cc2ccncc2c2c1[nH]c1ccccc12", "GI50": "inactive: 4.91 µM"}, {"smiles": "CC(C)(Oc1ccc(Cl)cc1)C(=O)N(C(=O)N1CCCCC1)c1ccccc1", "GI50": "inactive: 16 µM"}, {"smiles": "N#Cc1nc(-c2ccco2)oc1N", "GI50": "inactive: > 10 µM"}, {"smiles": "CN(C)CC1CC/C(=C\\c2ccc(Cl)cc2)C1=O", "note": "(stereo not drawn)", "GI50": "inactive: 18.6 µM"}, {"smiles": "COC1C(OC(=O)/C=C/C=C/C=C/C=C\\C(=O)O)CCC2(CO2)C1C1(C)OC1CC=C(C)C", "note": "(stereo not drawn)", "GI50": "inactive: > 100 µM"}, {"smiles": "O=C1N/C(=N/N=C/C(O)C(O)C(O)C(O)CO)N/C1=C\\c1ccco1", "note": "(stereo not drawn)", "GI50": "inactive: > 100 µM"}, {"smiles": "N#CC(C(=O)C(=O)Nc1ccc(Cl)c(Cl)c1)c1ccc(Cl)cc1", "note": "(stereo not drawn)", "GI50": "inactive: > 100 µM"}, {"smiles": "O=C1CCC2(O)C3Cc4ccc(Oc5nnnn5-c5ccccc5)c5c4C2(CCN3CC2CC2)C1O5", "note": "(stereo not drawn)", "GI50": "inactive: > 100 µM"}, {"smiles": "Cc1ccc(S(=O)(=O)NNC(=S)Nc2cccc3ccccc23)cc1", "GI50": "inactive: > 100 µM"}, {"smiles": "Cn1c(=O)c2[nH]cnc2n(CC(N)=O)c1=O", "GI50": "inactive: > 100 µM"}, {"smiles": "CCCCCCCCCC1CC(=O)Oc2cccc(O)c21", "note": "(stereo not drawn)", "GI50": "inactive: 4.94 µM"}, {"smiles": "Nc1ncnc2c1ccn2CC=C(CO)CO", "GI50": "inactive: > 100 µM"}, {"smiles": "O=C(c1ccccc1)C1OC12C(=O)Nc1ccccc12", "note": "(stereo not drawn)", "GI50": "inactive: 33.3 µM"}, {"smiles": "Cn1ccc(C(=O)N2CCSC2=S)c(OCc2ccccc2)c1=O", "GI50": "inactive: > 100 µM"}, {"smiles": "COc1cc(C(C#N)NNC(=O)Cc2ccccc2)cc(OC)c1OC", "note": "(stereo not drawn)", "GI50": "inactive: > 100 µM"}, {"smiles": "O=S(=O)(O)c1ccc2c(/N=N/c3ccccc3)c(O)c(S(=O)(=O)O)cc2c1", "GI50": "inactive: > 100 µM"}, {"smiles": "CC1(C)CCC[C@]2(C)[C@H]3[C@H](C#N)c4cc(O)c(O)cc4O[C@@]3(C)CC[C@@H]12", "GI50": "inactive: > 10 µM"}, {"smiles": "CO[C@H](C(=O)O[C@H]1C(=O)N2CCC3CCC1C32C)c1ccccc1", "note": "(stereo partly drawn)", "GI50": "inactive: > 100 µM"}, {"smiles": "N[C@@H](CSCSC[C@H](N)C(=O)O)C(=O)O", "GI50": "inactive: > 225 µM"}, {"smiles": "N/C(S)=N/N=C/c1ccc(O)cn1", "GI50": "inactive: 13.5 µM"}, {"smiles": "CC[N+](C)(CC)CC(C)(C)C(=O)/C=C/c1ccc(/C=C/C(=O)C(C)(C)C[N+](C)(CC)CC)cc1", "GI50": "inactive: > 100 µM"}, {"smiles": "C[n+]1c(-c2ccc(/C=N\\N3CCN(/N=C/c4ccc(-c5cn6ccccc6[n+]5C)cc4)CC3)cc2)cn2ccccc21", "GI50": "inactive: > 100 µM"}, {"smiles": "O=C1CCC2(c3ccc(Cl)cc3)Nc3cc(Cl)ccc3N12", "note": "(stereo not drawn)", "GI50": "inactive: 14.1 µM"}, {"smiles": "COc1cc2oc3c(c(=O)c2c(O)c1/C=C/C(C)C)C(C=C(C)C)Oc1cc(O)ccc1-3", "note": "(stereo not drawn)", "GI50": "inactive: 16 µM"}, {"smiles": "Cc1c2cc[n+](C)cc2c(C)c2c1[nH]c1ccc(Cl)cc12", "GI50": "active: 0.933 µM"}]}]}
